Data taken from article PMC4336329 (PLoS ONE, 2015).
About 2,200 (0.71%) of roughly 310,000 compounds showed an effect of 50% or more. Effects have a minus sign here. Some of the results follow.

target: human ether-à-go-go-related gene (hERG) potassium channel (human, UniProt Q12809); assay: primary screen, population patch clamp on CHO cells stably expressing hERG
Sequence (Q12809 whole entry, looked up): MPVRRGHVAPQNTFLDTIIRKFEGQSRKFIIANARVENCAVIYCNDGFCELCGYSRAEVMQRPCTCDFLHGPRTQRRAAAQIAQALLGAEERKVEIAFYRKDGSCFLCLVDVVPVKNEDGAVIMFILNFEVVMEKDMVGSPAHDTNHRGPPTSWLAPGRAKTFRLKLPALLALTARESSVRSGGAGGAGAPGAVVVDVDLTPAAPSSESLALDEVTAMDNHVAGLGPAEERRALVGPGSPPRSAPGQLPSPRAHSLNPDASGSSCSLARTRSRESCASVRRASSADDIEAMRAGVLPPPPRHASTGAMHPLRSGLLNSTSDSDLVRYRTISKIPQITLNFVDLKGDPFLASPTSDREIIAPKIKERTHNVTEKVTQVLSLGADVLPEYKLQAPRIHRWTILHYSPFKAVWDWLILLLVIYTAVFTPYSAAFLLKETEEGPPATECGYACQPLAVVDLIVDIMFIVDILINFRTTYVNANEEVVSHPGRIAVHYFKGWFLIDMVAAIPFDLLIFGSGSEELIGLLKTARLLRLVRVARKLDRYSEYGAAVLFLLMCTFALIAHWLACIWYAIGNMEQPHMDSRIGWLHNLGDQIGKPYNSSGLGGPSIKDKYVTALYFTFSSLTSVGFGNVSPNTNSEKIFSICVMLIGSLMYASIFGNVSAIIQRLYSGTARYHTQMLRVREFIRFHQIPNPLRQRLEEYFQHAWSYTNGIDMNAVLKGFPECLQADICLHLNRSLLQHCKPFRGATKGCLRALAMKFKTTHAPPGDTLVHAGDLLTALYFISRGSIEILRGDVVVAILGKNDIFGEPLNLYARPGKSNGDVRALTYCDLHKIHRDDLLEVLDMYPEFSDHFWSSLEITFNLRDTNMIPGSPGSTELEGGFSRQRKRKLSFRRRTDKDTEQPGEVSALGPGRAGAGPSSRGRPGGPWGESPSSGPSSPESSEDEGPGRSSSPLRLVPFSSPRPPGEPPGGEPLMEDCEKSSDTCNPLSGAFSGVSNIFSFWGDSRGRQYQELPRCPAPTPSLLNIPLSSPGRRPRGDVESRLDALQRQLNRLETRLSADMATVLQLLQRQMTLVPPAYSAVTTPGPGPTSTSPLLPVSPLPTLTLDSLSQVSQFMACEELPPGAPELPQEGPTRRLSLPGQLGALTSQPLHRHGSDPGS

SMILES	hERG current change (%, negative = inhibition) at 1uM [%]
S=C(Nc1ccc(Nc2ccccc2)cc1)NC1CCCCCC1	5.25
O=C(COc1ccc(Cl)cc1)NCc1nnc(SCC(=O)Nc2ccccc2F)o1	1.62
Cc1c(C(=O)N/N=C/c2ccc(Cl)cc2)[nH]c2ccc(Cl)cc12	20
Cc1cc(C)cc(N=C2SC(CC(=O)Nc3ccccc3)C(=O)N2CCN2CCOCC2)c1 (stereo not drawn)	10.3
COc1cc2c(cc1OC)C(C(=O)N(C)C1CCCCC1)C1CCCCN1C2=O (stereo not drawn)	4.16
O=C(N/N=C/c1ccc(O)c(O)c1)C1CC1	4.2
Cc1ccc(C(=O)NCC(=O)OCc2c(F)cccc2Cl)cc1	19.9
COc1ccc(S(=O)(=O)Nc2ccccc2)cc1OC	-10.3
COc1ccc(C(=O)COC(=O)c2cccc(-n3cnnn3)c2)c(OC)c1	11.9
COc1cc(CNCc2ccccn2)ccc1OCc1ccc(Cl)cc1Cl.Cl	-7.13
COc1ccc(SC[C@H](C)CN2CC[C@H](C(C)(C)C)CCC2=O)cc1	12.6
Cc1onc(-c2ccccc2Cl)c1C(=O)N(C)Cc1ccccc1	12.4
Cc1cc(OCc2cc(C(=O)O)oc2C)c2c3c(c(=O)oc2c1)CCCC3	9.46
CCOc1ccc(S(=O)(=O)N2CCC(C(=O)NCC(=O)Nc3cccc(Cl)c3C)CC2)cc1	-7.93
Cc1ccc(Cn2c(C(C)Nc3nc(-c4ccc(C)cc4)cs3)nc3cc(Cl)c(Cl)cc32)cc1 (stereo not drawn)	-7.77
Cc1ccc(NC(=O)CN(C)CC(=O)Nc2ccc(F)c(F)c2F)c(Cl)c1	8.21
CC(C)OCCCNC1=C(Cl)C(=O)c2ccccc2C1=O	12.4
COC(=O)c1c(-c2c(Cl)cccc2Cl)noc1C(=O)NN	12.5
Cc1ccc(NC(=O)C(C)OC(=O)Cc2c[nH]c3ccccc23)cc1S(=O)(=O)N1CCOCC1 (stereo not drawn)	1.71
CCOc1cc(C(=O)OCc2ccc(OC)cc2)ccc1OCC(=O)N1CCOCC1	10.3
CCOC(=O)c1cc(-c2ccc3c(c2)OCCO3)n[nH]1	28.2
Cc1cc(Nc2ccccc2)nc2cc(O)ccc12	6.45

SMILES	hERG current change (%, negative = inhibition) at 1uM [%]
Brc1ccc(-c2csc3[n+]2CCCCC3)cc1.[Br-]	1.01
CC(=O)N1c2ccc(S(=O)(=O)N3CCCC3)cc2CC1C(=O)NCc1ccc(N(C)C)cc1 (stereo not drawn)	4.54
O=C(O)C1=C[C@H](c2coc3ccccc3c2=O)C[C@H](OCc2ccc(CO)cc2)O1	10.4
CC(=O)Nc1ccc(Oc2ccc([N+](=O)[O-])cc2Cl)cc1	13
COC(=O)c1cc(S(=O)(=O)N2c3ccccc3CC2C)cn1C (stereo not drawn)	16.1
Cc1cc(NC(=O)c2cc(-c3ccc(OC(C)C)cc3)nc3ccccc23)no1	15.4
CCO/N=C/c1ccc(OC)c(Oc2nc(OC)cc(OC)n2)c1	5.85
CC1=C(C(=O)NCCN2CCOCC2)C2(CCC(C)CC2)OC1=O (stereo not drawn)	14.9
CCOC(=O)N1CCN(S(=O)(=O)CCNC(=O)c2ccccc2)CC1	9.23
COC(=O)C1CC(c2ccc(Cl)cc2)=NO1 (stereo not drawn)	2.86
CC(=O)c1ccc(O)c(CSc2nncn2C)c1	9.44
COc1cccc(/C(O)=C2/C(=O)C(=O)N(CCN3CCOCC3)C2c2cccs2)c1 (stereo not drawn)	10.7
O=C(CCN1C(=O)COc2ccccc21)NCCN1CCN(c2cccc(Cl)c2)CC1	-14.6
Cc1cc(C)cc(N2CC(c3nc4ccccc4n3C)CC2=O)c1 (stereo not drawn)	2.4
COc1ccc(F)cc1C1=CC(=O)C[C@H](c2ccc3c(c2)OCO3)C1	11.3
CCC(=O)OC1CSc2nc3ccccc3n2C1 (stereo not drawn)	3.58
COc1ccc(NC(=O)c2ccc(NC(=O)c3cccs3)cc2)cc1	0.302
CC(=O)Nc1ccc(NC(=O)C(C)OC(=O)CCC(=O)c2ccc(F)cc2)cc1 (stereo not drawn)	8.41
CCn1c(SCC(=O)c2c(N)n(C3CC3)c(=O)[nH]c2=O)nc2cc(S(N)(=O)=O)ccc21	15
N#C/C(=C/c1ccccc1)c1nn(CCO)c(N)c1C#N	9.65
Cc1cccc(-c2noc(Cc3ccccc3)n2)c1	8.12
CCN(CC)S(=O)(=O)c1cccc(C(=O)Nc2nncs2)c1	7.46

SMILES	hERG current change (%, negative = inhibition) at 1uM [%]
CC(=O)N1CCc2cc(S(=O)(=O)NC(Cc3ccccc3)C(=O)NC3CCCCCC3)ccc21 (stereo not drawn)	0.252
COc1ccc2oc(=N)c(C(=O)Nc3ccccc3)cc2c1	-3.79
COC(=O)c1c(C(=O)OC)c(-c2ccc(Br)cc2)n2c1CS(=O)C2 (stereo not drawn)	12.5
Cc1ccc(C)c(N(CC(=O)NCc2ccccc2)C(=O)c2csnn2)c1	8.06
O=C(O)CNC(=O)C(c1ccccc1)c1ccccc1	11.2
O=C(CCNC(=O)Cn1ccc2ccccc2c1=O)NCC1CCCC1c1ccccc1 (stereo not drawn)	1.85
CCN(CC(=O)N1CCN(Cc2ccccc2)CC1)S(=O)(=O)c1ccccc1	15.9
C=CCN1C(=O)C2C(C(=O)NC3CCCCC3)C3C=CC2(O3)C1C(=O)NC1CCCC1 (stereo not drawn)	7.07
CC(C)C[C@@H]1NC(=O)[C@H](C(C)C)NC(=O)c2cc([N+](=O)[O-])cc(I)c2NCC[C@@H](C(N)=O)NC1=O	-3.05
CCC(C)N(C(=O)COC(=O)c1cc([N+](=O)[O-])ccc1N)C1CCS(=O)(=O)C1 (stereo not drawn)	15.1
O=S(=O)(/N=C/N1CCOCC1)c1ccc(Cl)cc1	6.69
O=C(c1ccc(OCC2CCCO2)cc1)N1CCc2ccccc2C1 (stereo not drawn)	11
O=C(O)CCC(=O)Nc1ccc(OCC(=O)O)cc1	12.5
Cc1ccccc1-n1c(SCC(=O)Nc2ccccc2Cl)nc2n[nH]c(C)c2c1=N	10.3
COc1ccc(F)cc1S(=O)(=O)Nc1ccc(C)cc1	10.7
Brc1ccc(-c2cn3ccccc3n2)cc1	0.36
Cc1ccc(NS(=O)(=O)c2cc3c4c(c2)CC(=O)N4CCC3)cc1C	5.67
CN1c2ccccc2N(C)C1(C)c1cccc2ccccc12	8.07
N#Cc1cc(Oc2ccc3ccccc3c2)c(-n2nnc3ccccc32)cc1C#N	11.7
COc1ccc(NC(=O)c2ccc(Br)o2)c([N+](=O)[O-])c1	9.83
Cc1ccc(C)c(CSc2ccc3nnc(-c4ccccn4)n3n2)c1	-54.3
COc1cc(CC(=O)Nc2ccc3c(c2)CCC3)cc(OC)c1OC	5.91

SMILES	hERG current change (%, negative = inhibition) at 1uM [%]
Cc1onc(-c2ccccc2Cl)c1C(=O)NCCn1ccc2ccccc21	-12.2
Cc1cccc(N2CCN(C(=O)C(C)C)CC2)c1C	0.865
COc1cc(C(=O)/C=C/c2cccnc2)c([N+](=O)[O-])cc1OC	11.2
O=C(Nc1ccc(OC(F)F)cc1)c1cc(S(=O)(=O)N2CCCCC2)ccc1N1CCOCC1	-7.89
COc1cc(-c2nc(Cc3c(F)cccc3Cl)no2)cc(OC)c1OC	6.29
O=c1cc(-c2ccccc2)[nH]c2cc(Cl)ccc12	11.3
C/C(CCC(C)C)=N\Nc1cc(C)c2ccccc2n1	5.1
Nc1oc2ccccc2c1C(=O)Cc1ccccc1O[C@@H]1O[C@H](CO)[C@@H](O)[C@H](O)[C@H]1O	12.8
COc1ccnc(CSC(N)=Nc2ccccc2OC)c1.Cl	-8.43
COc1ccc(/C=C(/C(=O)NCc2ccccc2)c2ccccc2)cc1	-5.18
CC1(C)CC(NC(=O)c2ccncc2)CC(C)(C)N1O.Cl	12.4
C=C1CCC2C(C)(C)[C@@H](O)CC[C@@]2(C)[C@@H]1COc1ccc2ccc(=O)oc2c1 (stereo partly drawn)	19.7
CCn1nnnc1SCC(=O)Nc1nc(C)c(C)s1	7.96
O=C(NNC(=O)C1CCC1)c1ccccc1F	12.3
O=C(NCc1csc(-c2ccccc2)n1)c1cc(F)cc2c1OCOC2	9.52
N#CCCn1cc(/C=N/O)c(-c2ccc(-c3ccccc3)cc2)n1	9.98
C/C(=N\Nc1ccccc1)c1c(O)n(-c2ccccc2)c(=O)[nH]c1=O	9.21
COc1ccc2c(c1OC)C(=O)OC2C/C(=N\NC(N)=O)c1ccccc1 (stereo not drawn)	18.9
Cc1ccc(Cn2c(CN3CC(C)OC(C)C3)nc3c2c(=O)[nH]c(=O)n3C)cc1 (stereo not drawn)	-3.88
Cc1cc(S(=O)(=O)N2CCOCC2)c(C)s1	14.9
CCOC(=O)c1c(-n2c(C)cc(/C=C3/C(=O)NC(=O)N(CC)C3=O)c2C)sc2c1CCCC2	4.99
